# PubChem BioAssay AID1508624 (National Center for Advancing Translational Sciences (NCATS), 2021)
# Several values for one entry are separate records, joined by “and”; a condition that tells them apart may be missing. Equal entries are not always repeated. About 120 (0.25%) of roughly 48,000 compounds were called active. Not shown: some 4% with an inconclusive outcome. Calls come from the whole dose curve; as a rule, active = well fitted activation curve with a large enough effect; inconclusive = small, poorly fitted or top-dose-only effect, or another doubt; inactive = no such curve, though single readings can be large or run the other way. Some of the results follow.
# Test: Primary qHTS for Identification of Small Molecule Activators of Huntingtin-Antisense Promoter Activity; note: nearly all actives have a fitted effect of over 55% in size
# Details: HEK293 HTT-AS promoter firefly luciferase reporter, 24 h
# In short: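 HEK293 cells carrying firefly luciferase reporters were seeded at 2,500 per well in Opti-MEM and cultured for 24 h. They were then treated with compounds at up to 57.5 uM final for 24 h at 37 degrees C before Dual-Glo luminescence readout.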
# [1] = at 57.5 µM (top of the series) unless noted
compound,measurement,setting,value
OCCOc1ccccc1,"activity change, positive = activation",[1],inactive: 0.0498%
CC(CC(C#N)(c1ccccc1)c1ccccc1)N(C)C (stereo not given),"activity change, positive = activation",[1],inactive: -20% [at 116 µM]
CC[C@H]1C=CC=CC[C@@H](C)[C@H](O)[C@@](C)(O)C(=O)[C@@H](C)[C@H](O)[C@@H](C)C(=O)[C@@H](C)[C@H](O)[C@@H](C)C=CC(=O)O[C@@H]2[C@@H](C)[C@H](CC1)O[C@]1(CC[C@H](C)[C@H](C[C@@H](C)O)O1)[C@H]2C,"activity change, positive = activation",[1],inactive: -77.9%
CC1(N2CCC(n3c([C@@H]4CCCNC4)nc4ccccc43)CC2)CCCCCCC1,"activity change, positive = activation",[1],inactive: -17%
COP(=O)(OC)C(O)C(Cl)(Cl)Cl (stereo not given),"activity change, positive = activation",[1],inactive: -7.86%
O=c1c(C2CC(c3ccc(-c4ccc(Br)cc4)cc3)Cc3ccccc32)c(O)sc2ccccc12 (stereo not given),"activity change, positive = activation",[1],inactive: -30.9%
O=C1C=CC[C@@H]2[C@H]3CCCN4CCC[C@@H](CN12)[C@@H]34,"activity change, positive = activation",[1],inactive: -78.1%
COC(=O)[C@@H](N)CCCN/C(N)=N/[N+](=O)[O-],"activity change, positive = activation",[1],inactive: -5.44%
Nc1ccc(Cl)cc1,"activity change, positive = activation",[1],inactive: -3.11% [at 116 µM]
CC[C@]1(O)CC[C@H]2[C@@H]3CCC4=CCCC[C@@H]4[C@H]3CC[C@@]21C,"activity change, positive = activation",[1],inactive: -17%
CCC(C(=O)Nc1ccccc1F)N1C(=O)CN=C(c2ccccc2)c2ccccc21 (stereo not given),"activity change, positive = activation",[1],inactive: -27%
CCc1ccc(-n2nc(C)c3c2NC(=O)CSC3c2ccc(OC)cc2OC)cc1 (stereo not given),"activity change, positive = activation",[1],inactive: -37.3%
CN[C@@H](C)[C@H](O)c1ccccc1,"activity change, positive = activation",[1],inactive: -4.09%
COc1ccc(Cl)cc1NC(=O)c1sc2nc3c(cc2c1N)N1CCC3CC1,"activity change, positive = activation",[1],"inactive: 12.6% [at 57.5 µM, percent change from vehicle, -100% = no light]"
O=S(=O)(O)C(F)(F)C(F)(F)C(F)(F)C(F)(F)C(F)(F)C(F)(F)C(F)(F)C(F)(F)F,"activity change, positive = activation",[1],inactive: -11.3% [at 116 µM]
ClCc1cccc(Cl)c1,"activity change, positive = activation",[1],inactive: -3.5%
CCOC(=O)c1ccc(NC(=O)c2cccn(Cc3ccccc3F)c2=O)cc1,"activity change, positive = activation",[1],inactive: -49.5%
C[C@]12CC[C@@H]3c4ccc(OC(=O)N(CCCl)CCCl)cc4CC[C@H]3[C@@H]1CC[C@@H]2OP(=O)(O)O,"activity change, positive = activation",[1],inactive: 2.65%
O=C(NCC1CCOCC1)c1cnc(Nc2ccc(Cl)cc2Cl)nc1C(F)(F)F,"activity change, positive = activation",[1],inactive: -32.8%
COc1c2c(cc3c1OCO3)CCN(C)C2,"activity change, positive = activation",[1],inactive: -14.8%
N#Cc1ccccc1NC(=O)c1cccn(Cc2ccccc2)c1=O,"activity change, positive = activation",[1],"inactive: -21.7% [at 57.5 µM, percent change from vehicle, -100% = no light]"
COc1ccc(-c2nc(CN3C(=O)CN=C(c4ccccc4Cl)c4cc(Cl)ccc43)c(C)o2)cc1OC,"activity change, positive = activation",[1],inactive: -42.6%
O=C(Cn1cc(C(=O)c2ccccc2)c2ccccc21)Nc1ccc(Br)cc1,"activity change, positive = activation",[1],inactive: -26.1%
NCC(O)c1ccc(O)cc1 (stereo not given),"activity change, positive = activation",[1],inactive: -6.96%
C[C@](O)(CS(=O)(=O)c1ccc(F)cc1)C(=O)Nc1ccc(C#N)c(C(F)(F)F)c1,"activity change, positive = activation",[1],inactive: -35.2%
N#Cc1nn(-c2c(Cl)cc(C(F)(F)F)cc2Cl)c(N)c1S(=O)C(F)(F)F (stereo not given),"activity change, positive = activation",[1],inactive: -47.9%
Nc1ccc(Cl)cc1C(=O)c1ccccc1F,"activity change, positive = activation",[1],inactive: -16.5%
Cc1cccc(CN2C(=O)CN=C(c3ccccc3)c3cc(Cl)ccc32)c1,"activity change, positive = activation",[1],inactive: -38.6%
CN(C)CCc1c[nH]c2cccc(O)c12,"activity change, positive = activation",[1],inactive: -8.4% [at 116 µM]
CCCc1ccc(OCC(=O)Nc2ccc(Cl)cc2C(=O)c2ccccc2)cc1,"activity change, positive = activation",[1],"inactive: 4.95% [at 57.5 µM, percent change from vehicle, -100% = no light]"
Clc1ccccc1N1CCNCC1,"activity change, positive = activation",[1],inactive: -5.65%
CC(C)(C)C(O)C(Oc1ccc(Cl)cc1)n1cncn1 (stereo not given),"activity change, positive = activation",[1],inactive: -11% [at 116 µM]
CC(C)c1ccc(NC(=O)CN2C(=O)CN=C(c3ccccc3)c3ccccc32)cc1,"activity change, positive = activation",[1],"inactive: -20.9% [at 57.5 µM, percent change from vehicle, -100% = no light]"
C[C@]12CC[C@H]3[C@@H](CC=C4C[C@@H](O)CC[C@@]43C)[C@@H]1CC[C@@H]2O,"activity change, positive = activation",[1],inactive: -8.44%
c1ccc2c(c1)Nc1ccccc1S2,"activity change, positive = activation",at 57.5 µM (top of the series),inactive: -19.3%
same,"activity change, positive = activation",at 116 µM (top of the series),inactive: -6.97%
COc1cc(CC(C)N)c(OC)cc1Br (stereo not given),"activity change, positive = activation",[1],inactive: -9.27% [at 116 µM]
CCC(CC)(CNC(=O)CCCO)c1cccc(OC)c1,"activity change, positive = activation",[1],inactive: -1.35%
CC(C)=C[C@@H]1[C@@H](C(=O)OCc2coc(Cc3ccccc3)c2)C1(C)C,"activity change, positive = activation",[1],"inactive: -10.2% [at 57.5 µM, percent change from vehicle, -100% = no light]"
CCCN(CCC)CCc1c[nH]c2ccccc12,"activity change, positive = activation",[1],inactive: -16.3% [at 116 µM]
CN1CC[C@]23c4c5ccc(O)c4O[C@H]2[C@@H](O)C=C[C@H]3[C@H]1C5,"activity change, positive = activation",[1],inactive: -19.3% [at 116 µM]
O=[N+]([O-])c1cc([N+](=O)[O-])c2ccccc2c1,"activity change, positive = activation",[1],inactive: -6.76% [at 116 µM]
CC(C)(C)c1cc(C=C(C#N)C#N)cc(Br)c1O,"activity change, positive = activation",[1],inactive: -87.4%
O=C(Nc1ccc2c(c1)OCO2)c1cccn(Cc2ccc(F)cc2)c1=O,"activity change, positive = activation",[1],inactive: -4.54%
O=c1cccc2n1CC1CNC[C@H]2C1,"activity change, positive = activation",[1],inactive: 10.4%
O=C1OC(c2ccc(O)c(S(=O)(=O)O)c2)(c2ccc(O)c(S(=O)(=O)O)c2)c2c(Br)c(Br)c(Br)c(Br)c21,"activity change, positive = activation",[1],inactive: 0.0002%
NCC(CC(=O)O)c1ccc(Cl)cc1 (stereo not given),"activity change, positive = activation",[1],inactive: -12.9% [at 0.74 µM]
CN(C)[C@@H]1C(=O)C(C(N)=O)=C(O)[C@@]2(O)C(=O)C3=C(O)c4c(O)cccc4[C@@](C)(O)[C@H]3C[C@@H]12,"activity change, positive = activation",[1],inactive: -5.24% and inactive: -17.3%
Cc1ccccc1Cn1cccc(C(=O)Nc2cc(Cl)ccc2C#N)c1=O,"activity change, positive = activation",[1],inactive: -14.3%
Cn1c(=O)n(C)c2cc(CNCCc3ccccc3)ccc21,"activity change, positive = activation",[1],inactive: -3.26%
CC(NC(C)(C)C)C(=O)c1cccc(Cl)c1 (stereo not given),"activity change, positive = activation",[1],inactive: -0.19% and inactive: 4.76%
CCC(=O)N1CC(=O)Nc2ccc(C)cc2C1c1ccc(F)cc1 (stereo not given),"activity change, positive = activation",[1],"inactive: -7.07% [at 57.5 µM, percent change from vehicle, -100% = no light]"
CCOc1ccc2nc(NC(=O)c3cccn(Cc4ccccc4C)c3=O)sc2c1,"activity change, positive = activation",[1],inactive: -6.68%
Cc1cc(NC(=O)c2cccn(Cc3cccc([N+](=O)[O-])c3)c2=O)no1,"activity change, positive = activation",[1],"inactive: -19.7% [at 57.5 µM, percent change from vehicle, -100% = no light]"
NCc1cccnc1,"activity change, positive = activation",[1],inactive: 1.3%
COc1ccc(-c2nc(CN3C(=O)CN=C(c4ccccc4)c4ccccc43)c(C)o2)cc1OC,"activity change, positive = activation",[1],"inactive: -15.2% [at 57.5 µM, percent change from vehicle, -100% = no light]"
CCc1ccc(OCC(=O)N2CCN(CCc3ccccn3)CC2)cc1,"activity change, positive = activation",[1],inactive: 3.13% [at 11.5 µM]
COc1ccccc1-n1c(/C=C/c2ccccc2)nc2ccccc2c1=O,"activity change, positive = activation",[1],"inactive: 14.4% [at 57.5 µM, percent change from vehicle, -100% = no light]"
Cn1c(CCCC(=O)O)nc2cc(N(CCCl)CCCl)ccc21,"activity change, positive = activation",[1],inactive: -11.8% and inactive: -8.73%
O=C1CN=C(c2ccccc2)c2cc(Cl)ccc2N1Cc1ccc(Cl)cc1,"activity change, positive = activation",[1],inactive: -46.7%
O=C(N[C@@H](COc1ccc2[nH]c(=O)[nH]c2c1)c1ccccc1)c1cccn(Cc2ccc(F)c(F)c2)c1=O,"activity change, positive = activation",[1],inactive: -34.5%
NC(=O)c1cc([N+](=O)[O-])cc([N+](=O)[O-])c1,"activity change, positive = activation",[1],inactive: -0.376%
C[C@@]12OC(=O)[C@]1([C@@H](O)[C@@H]1C=CCCC1)NC(=O)[C@H]2CCCl,"activity change, positive = activation",[1],inactive: -60%
O=C1CC[C@@]2(O)[C@H]3Cc4ccc(O)c5c4[C@@]2(CCN3CC2CC2)[C@H]1O5,"activity change, positive = activation",[1],inactive: 0.466% and inactive: 13.9%
COc1ccc(-c2nn3c(=O)cc(CN4CCN(C(=O)COc5ccc(F)cc5)CC4)nc3s2)cc1,"activity change, positive = activation",[1],"inactive: -11.3% [at 57.5 µM, percent change from vehicle, -100% = no light]"
CCN(CC)CCc1c[nH]c2ccccc12,"activity change, positive = activation",[1],inactive: -14.7% [at 222 µM]
CC(=O)OC1(c2ccccc2)CCN(CCc2ccccc2)CC1,"activity change, positive = activation",[1],inactive: -19.7% [at 116 µM]
Oc1ccc2[nH]cc(CCCCN3CC=C(c4ccccc4)CC3)c2c1,"activity change, positive = activation",[1],inactive: -24.6%
Cc1oc(-c2ccc(Cl)cc2)nc1CN1C(=O)CN=C(c2ccccc2)c2cc(Cl)ccc21,"activity change, positive = activation",[1],"inactive: -14.7% [at 57.5 µM, percent change from vehicle, -100% = no light]"
COC1CC(=C(c2cccs2)c2cccs2)C[N+](C)(C)C1 (stereo not given),"activity change, positive = activation",[1],inactive: -8.72%
CN1CCN(C(=O)O[C@H]2c3nccnc3C(=O)N2c2ccc(Cl)cn2)CC1,"activity change, positive = activation",[1],inactive: -1.03% and inactive: -5.7%
Cc1ccc(NC(=O)CN2C(=O)CN=C(c3ccccc3)c3ccccc32)c(C)c1,"activity change, positive = activation",[1],"inactive: -26.1% [at 57.5 µM, percent change from vehicle, -100% = no light]"
CCOP(=S)(OCC)O/N=C(\C#N)c1ccccc1,"activity change, positive = activation",[1],inactive: -6.47%
C=CC(=O)NCNC(=O)C=C,"activity change, positive = activation",[1],inactive: 2.52% [at 116 µM]
O=C(c1ccc2c(c1)N(Cc1ccc(F)cc1Cl)C(=O)c1ccccc1S2)N1CCC2(CC1)OCCO2,"activity change, positive = activation",[1],inactive: -29.6%
